Source: PubChem BioAssay AID686978 (National Center for Advancing Translational Sciences (NCATS), 2013)
“And” between values parts separate entries of the source, which are not always exact repeats. Equal values may be shown once. Out of some 420,000 compounds screened, about 64,000 (15%) were called active. The inconclusive results got no clear call from the source; some entries with a clear call stand among them for comparison. Calls come from the whole dose curve; as a rule, active = well fitted inhibition curve with a large enough effect; inconclusive = small, poorly fitted or top-dose-only effect; inactive = flat fitted curve, though single readings scatter. Potencies of inconclusive entries are left out as doubtful fits.

test: qHTS for Inhibitors of human tyrosyl-DNA phosphodiesterase 1 (TDP1): qHTS in cells in absence of CPT; settings: DT40 Tdp1-/- hTDP1 cells, no CPT, ATP luminescence, 48 h; activity change, negative = growth inhibition: at 46.2 µM (top of the series) unless noted; note: nearly all actives have a fitted effect of over 55% in size
How it was run: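 Compound effects on proliferation are scored in DT40 Tdp1-/-;hTDP1 cells in the absence of CPT. ATP levels (CellTiter-Glo luminescence) are recorded after a ≥48 hr, 37 °C incubation.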
% is set by controls: 0 for no effect and ±100 for the full control effect; potency is the fitted concentration of half-maximal effect; tags give direction and shape of the fitted curve.

| SMILES | Potency | activity change, negative = growth inhibition |
| --- | --- | --- |
| COc1ccc(CCNC(=O)CCCCCN2C(=O)[C@@H]3Cc4ccccc4CN3C2=O)cc1OC | inconclusive [inhibitor, partial curve] |  |
| Cc1ccnc(Nc2ccc(CCO)cc2)n1 | inactive |  |
| CC(C)c1ccccc1NC(=S)NC1CCN(Cc2ccccc2)CC1 | inconclusive [inhibitor, single point] |  |
| CCc1ccc(NC(=O)CSc2nc3c(c(=O)n(C)c(=O)n3C)n2C)cc1 | inconclusive [inhibitor, partial curve] |  |
| Cn1ccc(CC(=O)N2CCC(N3CCC(C(=O)N4CCCC4)CC3)CC2)c1 | inactive |  |
| CCN(CC)c1ccc(C(=C2C=CC(=[N+](CC)CC)C=C2)c2ccccc2)cc1 | active: 94.4 nM and active: 146 nM |  |
| Nc1ccn([C@@H]2O[C@H](CNCc3ccc(-c4cc(C(F)(F)F)ccc4Cl)o3)[C@@H](O)[C@H]2O)c(=O)n1 | inactive |  |
| Nn1c(-c2cccs2)nc2sc3c(c2c1=O)CCCC3 | inconclusive [inhibitor, partial curve] |  |
| CN(C)S(=O)(=O)c1cccc(NC(=O)c2c[nH]c3ccccc23)c1 | inconclusive [inhibitor, single point] |  |
| O=C1OCCN1C(=O)[C@H]1[C@H](c2ccc(Cl)cc2)C(c2ccccc2)=NN1c1ccccc1 | inconclusive [inhibitor, single point] |  |
| O=C(CN1C(=O)NC2(CCCC2)C1=O)N1CCN(S(=O)(=O)c2ccccc2[N+](=O)[O-])CC1 | inactive |  |
| COc1ccc(/C=C(\NC(=O)c2ccc(C)cc2)C(=O)Nc2c(C)n(C)n(-c3ccccc3)c2=O)cc1 | inactive |  |
| CCN(CC)CCN(Cc1cc2cc3c(cc2[nH]c1=O)OCO3)C(=S)NCCCOC | inactive |  |
| CC(C(=O)NC(C)(C)C)N(Cc1cccs1)C(=O)CCN1CCc2ccccc21 (centres undefined) | inconclusive [inhibitor, single point] |  |
| Cn1cnnc1SCC(=O)NCc1ccccc1 | inactive |  |
| O=C(COc1cccc(Br)c1)Nc1ccc(Cl)c(S(=O)(=O)N2CCOCC2)c1 | active: 16.4 µM |  |
| Cc1ccc(Sc2ccc(N3CCCC(C(=O)Nc4ccc(Br)cc4)C3)nn2)cc1 (centres undefined) | inconclusive [inhibitor, single point] |  |
| CNC(=O)c1ccc(Nc2nnc(-c3ccc(O)cc3)c3ccccc23)cc1 | inconclusive [inhibitor, single point] |  |
| COc1ccc(NC(=O)COC(=O)c2ccc(NS(=O)(=O)/C=C/c3ccccc3)cc2)cc1 | inactive |  |
| COc1cccc(OC)c1C(=O)N1CCN(Cc2ccccc2C(F)(F)F)CC1 | inconclusive [inhibitor, single point] |  |
| CCOC(=O)c1cccnc1NC(=O)c1ccccc1 | inconclusive [inhibitor, single point] |  |
| CCC(=O)c1ccc(OCc2ccc(C(=O)OC)cc2)c(OC)c1 |  | inconclusive: -32.6% [inhibitor] |

| SMILES | Potency | activity change, negative = growth inhibition |
| --- | --- | --- |
| CCc1ccc(OCC(=O)Nc2cccc3c2CCCC3)cc1 | inconclusive [inhibitor, partial curve] |  |
| CCc1ccccc1NC(=O)N1C2CCCC1CC(NC(=O)C(C)(C)C)C2 (centres undefined) |  | inconclusive: -33.2% [inhibitor] |
| COc1ccc(SCc2cc(=O)c3ccc(C)c(C)c3[nH]2)cc1 | inconclusive [inhibitor, single point] |  |
| COc1cccc(-c2n[nH]nc2C2=CC(=O)CC(C)(C)C2)c1 | inconclusive [inhibitor, single point] |  |
| O=C(NCCc1ccc(Cl)cc1)c1cc(-c2ccccc2)n[nH]1 | inactive |  |
| CN(c1ccccc1)S(=O)(=O)c1cccc(NC(=O)C2=NN(c3ccccc3)C(=O)CC2)c1 | active: 13 µM |  |
| Cc1nc2ccn(Cc3cccnc3)c(=O)c2cc1C(=O)N1CCN(c2ccccc2F)CC1 | inconclusive [inhibitor, single point] |  |
| CN1C(=O)/C(=C/c2ccc(C(F)(F)F)cc2)Sc2ccc(C(=O)N3CCN(c4ccccn4)CC3)cc21 |  | inconclusive: -35.2% [inhibitor] |
| Cc1ccc(C)c(-n2nnnc2SCC(=O)NCCC2=CCCCC2)c1 | inconclusive [inhibitor, single point] |  |
| O=S(=O)(Cc1cc(Cl)nc(-c2ccncc2)n1)c1ccccc1 | inconclusive [inhibitor, single point] |  |
| COc1ccc2c(c1)Cc1sc(NC(=O)c3ccccc3C)nc1-2 | inconclusive [inhibitor, single point] |  |
| O=C(c1ccc(F)cc1)C1CCN(C(=O)c2ccccc2)CC1 | inconclusive [inhibitor, single point] |  |
| Cc1cc(C(=O)CSc2n[nH]c(N)n2)c(C)n1C1CC1 | active: 20.6 µM |  |
| CCOc1ccc(-c2nnc(SCC(=O)NC3CCCCC3)nc2-c2ccc(OCC)cc2)cc1 | inactive |  |
| O=S(=O)(c1ccccc1Cl)N1CCN(c2nc(-c3ccccc3)nc3ccccc23)CC1 | inconclusive [inhibitor, single point] |  |
| c1ccc(Nc2nc(-c3ccoc3)nc3ccccc23)cc1 | inconclusive [inhibitor, partial curve] |  |
| COc1ccc(C2=C(C)C(N3CCC(C(=O)NCc4ccc(C)o4)CC3)=NS2(=O)=O)cc1 | inactive |  |
| CN(C)CCN(C(=O)c1ccc2ccccc2c1)c1nc2ccc(Br)cc2s1 | inconclusive [inhibitor, single point] |  |
| Cc1ccc(S(=O)(=O)N/N=C\c2ccc([N+](=O)[O-])o2)cc1 | active: 16.4 µM |  |
| CC(C)(C)c1ccc(C2=CC(c3ccccc3)n3ncnc3N2)cc1 (centres undefined) | inconclusive [inhibitor, single point] |  |
| Cc1ccc(-c2nc3cc(NC(=O)C(C)C)ccc3o2)cc1C | inconclusive [inhibitor, single point] |  |
| O=C(Nc1nccs1)c1cc(-c2ccncc2)nc2ccccc12 | inconclusive [inhibitor, partial curve] |  |
